The supplement of paper PMC10338343
± gives the standard deviation. In all, about 6,600 sequences were measured (“pre-steady-state target cleavage rate”: median about 0.07, highest 2% from about 0.72 on). Only a part is listed here, and it is no random draw.

system: MIWI (PIWIL1) piRISC loaded with Kctd7 piRNA (30 nt); assay: pre-steady-state target cleavage rate (min^-1); MIWI and MILI are mouse PIWI proteins and EfPiwi is from a freshwater sponge; tags in brackets are library labels; higher = faster piRNA-guided slicing of the target; conditions: guide: Kctd7 piRNA 5'p-UGUUAAUCUCUCAGAGAAGGUGACAGUGAU; auxiliary factor: 500 nM mouse GTSF1
Procedure: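 Cleave-'n-Seq: a library of target RNAs (target site embedded in constant flanks, ACAGCATTCCGCGTTAGTGATATCCG... 5' flank; DNA-blocked outside the site) at 0.1 nM was incubated with 1 nM active mouse MILI or MIWI piRISC (synthetic 5'-monophosphorylated piRNA guide) with or without 500 nM mouse GTSF1 at 33 °C for 1 min to 16 h. Uncleaved targets were sequenced and normalised to non-target controls, and the pooled three trials were fitted to a burst-and-steady-state model to give the pre-steady-state cleavage rate (min^-1; k3 is constrained to at most 1e-4). Sequence is the target site only; target names encode pairing extent (gX:gY) and contiguous / 1-mismatch / 2-mismatch / bulge geometry. Fits with R² ≤ 0 are excluded.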

Sequence	pre-steady-state target cleavage rate
UAGACUGUCACCUUCUCACAGAGAUUAACA	0.0126 ± 0.004
UACACUAUCACCUUCUCUGAGAGAUUAACA	0.478 ± 0.034
UAGUGAGUCACCAUCUCUGAGAGAUUAAGA	0.0742 ± 0.019
UUCACUGUCACCUUCUCACUGAGAUUAACA	0.00774 ± 0.0042
UAGUGACAGAUCUUCUCUGAGAGAUUAACA	0.0808 ± 0.0058
AUCACUGGUCACCUUCUCUGAGAGAUUAACA	0.742 ± 0.047
UAGUGAGUCAGCAUCUCUGAGAGAUUAACA	0.25 ± 0.023
UAGACUGUCACCUUCUCUGAGCAGAUUAACA	0.00359 ± 0.0018
AUCACUGACACCUUGUCUGAGAGAUUAACA	0.203 ± 0.029
UAGACUGUAACCUUCUCUGAGAGAUUAACA	0.599 ± 0.038
UACACUGUCACCUAGACUGAGAGAUUAACA	0.0292 ± 0.0072
UAGUGAGUCACCUUCUCUGAGUCUUUUUGA	0.0138 ± 0.0072
UUGACUCUCACCUUCUCUGAGAGAUUAACA	0.528 ± 0.025
UUCAGUGUCACCUUCUCUGAGAGAUUAACA	0.578 ± 0.027
UAGUGUGUCACCUUCUCUGAGACUAUAACA	0.00618 ± 0.0039
UAGACUGUCACCUUGACUGAGAGAUUAAGA	0.00965 ± 0.0044
UACACUCUGACCUUCUCUGAGAGAUUAACA	0.29 ± 0.017
UAGUGACUCACCUUCUCUCAGAGUUUAACA	0.0221 ± 0.0044
UAGUGUGUCACCUUCUGUGAGUGAUUAACA	0.0182 ± 0.0067
UAGUCUGUGACCUUCUCUGAGAGAUUAAGA	0.124 ± 0.017
UAGACUGUCACCUUCUCAGAGAGAUUAACA	0.334 ± 0.023
UAGUGACAGUGGAACUCUGAGACUAAUUGA [g9:g16:cont:t1A]	0.0143 ± 0.013
UAGUGACACAGCUUCUCUGAGAGAUUAAGA	0.0573 ± 0.0086
UAGUGUGUCACCUUCAGUGAGAGAUUAACA	0.101 ± 0.013

Sequence	pre-steady-state target cleavage rate
UAGACUGUCACCUUCUCUGAGAGAUUUAGA	0.0419 ± 0.011
UACACUGUCACCUUCUCUGAGAGAUUAGACA	0.12 ± 0.023
UAGUGAGUCACCUUCUCUGUGUGAUUAACA	0.00823 ± 0.005
UACACUGUCACCUUCUCUGAGACAUUAACA	0.119 ± 0.014
UAGUCUGUCAGCUUCUCUGAGAGAUUAAGA	0.065 ± 0.011
UAGUGUGACACCUUCUCUGAGAGUUUAACA	0.197 ± 0.043
UACAGACUCACCUUCUCUGAGAGAUAUUGA	0.018 ± 0.0056
UAGUGACAGUCCUUCUCUGAGAGAUUAACA [g2:g20:cont:t1A]	0.091 ± 0.011
UAGUGACAGUCCUUCUCUGAGAGAUUAUCA	0.0245 ± 0.0042
UACACUGUACCUUCUCUGAGAGAUUAACA	0.597 ± 0.029
UAGUGAGUCACCAUCUCAGAGAGAUUAACA	0.0923 ± 0.008
UAGUGACACACCUUCUCUGAGAGAUUAGCA	0.153 ± 0.026
AUCACUGUCACCUUCUCUGAGAGAUUUACA	0.471 ± 0.059
UAGACUGUCACGAUCUCUGAGAGAUUAACA	0.601 ± 0.045
UACACUGUGUGCUUCUCUGAGAGAUUAAGA	0.00596 ± 0.0024
UAGUGUGUCACCUACUCUGACAGAUUAACA	0.217 ± 0.023
UAGUCAGUCACCUUCUCAGAGAGAUUAACA	0.496 ± 0.025
UAGACUGUCACCUUGUCUGACAGAUUAACA	0.268 ± 0.029
UAGUGACACACCUUCUCUGGGAGAUUAACA	0.288 ± 0.021
UAGUGACAGACCUUUUCUGAGAGAUUAACA	0.0444 ± 0.0078
AUCACUGUCACCUUCUCUGAGAGAAAUUGA	0.0816 ± 0.024
AUCACUGUCUCCUUCUCUGAGAGAUUAUCA	0.261 ± 0.038
AUCACUGUUACCUUCUCUGAGAGAUUAACA	0.553 ± 0.033
UAGUGACACACGUUCUCUGAGAGAAUAACA	0.0314 ± 0.0073

Sequence	pre-steady-state target cleavage rate
UAGUGACAGACCUUCUCUGAGAGAUAAUCA	0.00999 ± 0.005
UAGUGAGUCACCCUCUCUGAGAGAUUAACA	0.682 ± 0.038
UAGUGACAGUGGAAGAGACUCAGAUAAACA	< 0.0001
UAGUGACACACCUUGUGUGAGAGAUUAACA	0.0157 ± 0.0037
AUCACUGUGACCUUCUCUGUGAGAUUAACA	0.254 ± 0.013
AUCACUGUCACCUUCUCUCUCAGAUUUUGA	0.00682 ± 0.0034
UAGUGUGUCACCUACUCUGAGAGAUUAUGA	0.0323 ± 0.011
UAGUGAGUCACCAUCUCUGAGAGAUUUACA	0.247 ± 0.036
AUCUCAGUCACCUUCUCUGAGAGAUUAACA	0.35 ± 0.038
UUCACUGUCACCUUCACUCAGAGAUUAACA	0.0354 ± 0.0063
UACACUGUCACCUUCUCUGAGAAUUAACA	0.0839 ± 0.025
UACACUCUCACCUACUCUGAGAGAUUAACA	0.397 ± 0.026
AUCAGACUCACCUUCUCUGAGAGAUUAUGA	0.0489 ± 0.0098
AUCACUGUCACCUUCUCUAAGAGAUUAACA	0.482 ± 0.017
UAGUGUGUGAGCUUCUCUGAGAGAUUAACA	0.251 ± 0.022
UAGUGACAGUCCUUCUGUGAGAGAUUAUCA	0.0136 ± 0.0044
AUCACAGUCACCUUCUCUGAGAGAUAAACA	0.418 ± 0.042
UAGUCUGUCACCUUCUCUGAGAUAUUAACA	0.29 ± 0.027
AUCACUGUCUGCUUCUCUGAGAGAUUAUGA	0.0483 ± 0.0098
AUCACUGAGUCCUUCUCUGAGAGAUAUUGA	0.0168 ± 0.0055
UAGUGUAGUCACCUUCUCUGAGAGAUUAACA	0.678 ± 0.032
UUGAGUGUCACCUUCUCUGAGAGAUUAACA	0.763 ± 0.034
UAGUGAGUGACCUUCACUGAGAGAUUAACA	0.347 ± 0.027
UAGACUUUCACCUUCUCUGAGAGAUUAACA	0.612 ± 0.033
